Measured values as given in the supplement of paper PMC7580552.
Structures can show the parent of a compound that is named as a salt. This is one part of the list. Repeats are few or missing, and single values can be far off.
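Also: stationary (unshaken) cultures in 96-well plates, started at OD600 0.05 from mid-exponential cells, with compounds supplied from DMSO stocks.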

Each molecule was assayed on Escherichia coli W3110 (assay: planktonic growth (OD600) relative to untreated control; higher = more growth). Conditions: 10 µM; 20-24 h; 30 °C; TB.
Molecule `CC1(C)O[C@@H]2C[C@H]3[C@@H]4CCC5=CC(=O)C=C[C@]5(C)[C@H]4[C@@H](O)C[C@]3(C)[C@]2(C(=O)CO)O1` [Desonide] has a planktonic growth of 103%.
Molecule `CCOC(=O)n1ccn(C)c1=S` [Carbimazole] has a planktonic growth of 98%.
`O=C1CN(/N=C/c2ccc(-c3ccc([N+](=O)[O-])cc3)o2)C(=O)N1` [Dantrolene sodium salt] was tested, and the planktonic growth was 100%.
`Cc1cc(NS(=O)(=O)c2ccc(N)cc2)no1` [Sulfamethoxazole] was tested, and the planktonic growth was 59%.
`CN[C@@H]1[C@@H](O)[C@@H](O[C@@H]2[C@@H](O)[C@H](O[C@H]3OC(CN)=CC[C@H]3N)[C@@H](N)C[C@H]2N)OC[C@]1(C)O` [Sisomicin sulfate] gave a planktonic growth of 72%.
With `CC1(C)S[C@@H]2[C@H](NC(=O)[C@H](C(=O)O)c3ccsc3)C(=O)N2[C@H]1C(=O)O` [Ticarcillin sodium] the planktonic growth was 83%.
`Cc1ccccc1OCC(O)CO` (stereo not drawn) [Mephenesin] showed a planktonic growth of 95%.
`O=C1CN(/N=C/c2ccc([N+](=O)[O-])o2)C(=O)N1` [Nitrofurantoin] was tested, and the planktonic growth was 88%.
Molecule `CCN(CC)CCOC(=O)C(Cc1cccc2ccccc12)CC1CCCO1` (stereo not drawn) [Nafronyl oxalate] has a planktonic growth of 90%.
`C[C@H](N)[C@H](O)c1cccc(O)c1` [Metaraminol bitartrate] gave a planktonic growth of 94%.
In the case of `CC(C)n1c(/C=C/C(O)CC(O)CC(=O)O)c(-c2ccc(F)cc2)c2ccccc21` (stereo not drawn) [Fluvastatin sodium salt], the planktonic growth is reported as 96%.
In the case of `CC(=O)Oc1ccccc1C(=O)Oc1ccccc1C(=O)O` [Acetylsalicylsalicylic acid], the planktonic growth is reported as 91%.
`CCCCNc1cc(C(=O)O)cc(S(N)(=O)=O)c1Oc1ccccc1` [Bumetanide] showed a planktonic growth of 91%.
`CNC(=O)c1c(I)c(C(=O)NCC(=O)Nc2c(I)c(C(=O)O)c(I)c(C(=O)NCCO)c2I)c(I)c(N(C)C(C)=O)c1I` [Ioxaglic acid] showed a planktonic growth of 97%.
Molecule `Nc1ccc(S(=O)(=O)Nc2cnc3ccccc3n2)cc1` [Sulfaquinoxaline sodium salt] has a planktonic growth of 65%.
With `CNC[C@H](O)[C@@H](O)[C@H](O)[C@H](O)CO` [Meglumine] the planktonic growth was 105%.
`NC(=O)OCC(COC(N)=O)c1ccccc1` [Felbamate] showed a planktonic growth of 91%.
For `C[C@H]1NC(=O)NC1=O` [Methylhydantoin-5-(D)], the planktonic growth was 96%.
`Cc1ccnc(NS(=O)(=O)c2ccc(N)cc2)n1` [Sulfamerazine] was tested, and the planktonic growth was 66%.
With `N=C(N)NCc1cccc(I)c1` [Iobenguane sulfate] the planktonic growth was 92%.
Work on `CC(=O)O[C@H]1C[C@@]2(C)[C@@H](C[C@@H](O)[C@H]3[C@@]4(C)CC[C@@H](O)[C@@H](C)[C@@H]4CC[C@@]32C)/C1=C(\CCC=C(C)C)C(=O)O` [Fusidic acid sodium salt] yielded a planktonic growth of 89%.
`CC(=O)N[C@@H](CS)C(=O)O` [Acetylcysteine] gave a planktonic growth of 93%.
In the case of `CN(C)CCn1nnnc1SCC1=C(C(=O)O)N2C(=O)[C@@H](NC(=O)Cc3csc(N)n3)[C@H]2SC1` [Cefotiam hydrochloride], the planktonic growth is reported as 17%.
For `CC[C@H](C)C(=O)O[C@H]1C[C@@H](C)C=C2C=C[C@H](C)[C@H](CC[C@@H]3C[C@@H](O)CC(=O)O3)[C@H]21` [Lovastatin], the planktonic growth was 99%.
`Cc1c(C)c2c(c(C)c1O)CCC(C)(C(=O)O)O2` (stereo not drawn) [Trolox] was tested, and the planktonic growth was 107%.
With `CCN(CC)CCOC(=O)c1ccc(N)cc1` [Procaine hydrochloride] the planktonic growth was 115%.
Molecule `CCN(CC)C(=O)/C(C#N)=C/c1cc(O)c(O)c([N+](=O)[O-])c1` [Entacapone] has a planktonic growth of 111%.
Molecule `C[C@]12C=CC(=O)C=C1CC[C@H]1[C@@H]3C[C@@H](O)[C@](O)(C(=O)CO)[C@@]3(C)C[C@H](O)[C@@]12F` [Triamcinolone] has a planktonic growth of 97%.
`CC1(C)O[C@@H]2C[C@H]3[C@@H]4CCC5=CC(=O)CC[C@]5(C)[C@@]4(F)[C@@H](O)C[C@]3(C)[C@]2(C(=O)CCl)O1` [Halcinonide] gave a planktonic growth of 95%.
With `CC(=O)O[C@H]1C[C@@H]2CC[C@@H]3[C@H](CC[C@@]4(C)[C@H]3C[C@H]([N+]3(C)CCCCC3)[C@@H]4OC(C)=O)[C@@]2(C)C[C@@H]1N1CCCCC1` [Vecuronium bromide] the planktonic growth was 92%.
`C[C@@H](O)[C@H]1C(=O)N2C(C(=O)O)=C(S[C@@H]3CN[C@H](C(=O)N(C)C)C3)[C@H](C)[C@H]12` [Meropenem] was tested, and the planktonic growth was 20%.
In the case of `C[C@@H]1C[C@H]2[C@@H]3C[C@H](F)C4=CC(=O)C=C[C@]4(C)[C@@]3(Cl)[C@@H](O)C[C@]2(C)[C@H]1C(=O)COC(=O)C(C)(C)C` [Clocortolone pivalate], the planktonic growth is reported as 92%.
Work on `CNCCCC12CCC(c3ccccc31)c1ccccc12` [Maprotiline hydrochloride] yielded a planktonic growth of 96%.
`OC(c1cc(C(F)(F)F)nc2c(C(F)(F)F)cccc12)C1CCCCN1` (stereo not drawn) [Mefloquine hydrochloride] gave a planktonic growth of 107%.
Molecule `O=C(NCCN1CCOCC1)c1ccc(Cl)cc1` [Moclobemide] has a planktonic growth of 96%.
Molecule `CN(C)CCCSC(=N)N` [Dimaprit dihydrochloride] has a planktonic growth of 92%.
Molecule `C[C@H](Cc1cc2c(c(C(N)=O)c1)N(CCCO)CC2)NCCOc1ccccc1OCC(F)(F)F` [Silodosin] has a planktonic growth of 106%.
Work on `Cc1onc(-c2c(F)cccc2Cl)c1C(=O)N[C@@H]1C(=O)N2[C@@H]1SC(C)(C)[C@@H]2C(=O)O` [Flucloxacillin sodium] yielded a planktonic growth of 89%.
`CCN1CCCC(OC(=O)C(c2ccccc2)c2ccccc2)C1` (stereo not drawn) [Piperidolate hydrochloride] showed a planktonic growth of 92%.
For `NS(=O)(=O)c1cc(Cl)c(Cl)c(S(N)(=O)=O)c1` [Dichlorphenamide], the planktonic growth was 111%.
With `CCCCCNC(=N)N/N=C/c1c[nH]c2ccc(OC)cc12` [Tegaserod maleate] the planktonic growth was 83%.
Work on `CC(C)NC[C@H](O)COc1cccc2ccccc12` [(S)-propranolol hydrochloride] yielded a planktonic growth of 102%.
`OCCN1CCN(CCCN2c3ccccc3C=Cc3ccccc32)CC1` [Opipramol dihydrochloride] was tested, and the planktonic growth was 105%.
`CC(=O)CCCCn1c(=O)c2c(ncn2C)n(C)c1=O` [Pentoxifylline] was tested, and the planktonic growth was 92%.
For `CN1C(=O)OC(C)(C)C1=O` [Trimethadione], the planktonic growth was 93%.
Molecule `CN(C/C=C/c1ccccc1)Cc1cccc2ccccc12` [Naftifine hydrochloride] has a planktonic growth of 99%.
Molecule `O=c1n(CCCN2CCN(c3cccc(Cl)c3)CC2)nc2ccccn12` [Trazodone hydrochloride] has a planktonic growth of 93%.
Molecule `CC1(C)S[C@@H]2[C@H](NC(=O)[C@H](N)c3ccccc3)C(=O)N2[C@H]1C(=O)O` [Ampicillin trihydrate] has a planktonic growth of 18%.
For `C/C=C(/C(=C/C)c1ccc(O)cc1)c1ccc(O)cc1` [Dienestrol], the planktonic growth was 94%.
In the case of `Cc1ncc([N+](=O)[O-])n1CC(C)O` (stereo not drawn) [Secnidazole], the planktonic growth is reported as 113%.
Work on `O=C(O)c1ccccc1OP(=O)(O)O` [Fosfosal] yielded a planktonic growth of 97%.
Work on `Nc1cc(N2CCCCC2)nc(N)[n+]1[O-]` [Minoxidil] yielded a planktonic growth of 96%.
`COc1ccc2cc([C@H](C)C(=O)O)ccc2c1` [(S)-Naproxen] was tested, and the planktonic growth was 102%.
Molecule `COc1cccc2c1C(=O)c1c(O)c3c(c(O)c1C2=O)C[C@@](O)(C(=O)CO)C[C@@H]3O[C@H]1C[C@H](N)[C@@H](O)[C@H](C)O1` [Epirubicin hydrochloride] has a planktonic growth of 121%.
`CCCN(CCC)CCc1cccc2c1CC(=O)N2` [Ropinirole hydrochloride] was tested, and the planktonic growth was 91%.
For `CC(=O)O[C@H]1C(=O)[C@@]2(C)[C@H]([C@H](OC(=O)c3ccccc3)[C@]3(O)C[C@H](OC(=O)[C@H](O)[C@@H](NC(=O)c4ccccc4)c4ccccc4)C(C)=C1C3(C)C)[C@]1(OC(C)=O)CO[C@@H]1C[C@@H]2O` [Paclitaxel], the planktonic growth was 106%.
In the case of `NC(=O)c1cnccn1` [Pyrazinamide], the planktonic growth is reported as 91%.
`O=C(CCNNC(=O)c1ccncc1)NCc1ccccc1` [Nialamide] was tested, and the planktonic growth was 86%.
With `N/C(=N\C(=O)c1nc(Cl)c(N)nc1N)NCc1ccccc1` [Benzamil hydrochloride] the planktonic growth was 95%.
`CSc1nc2cc(Cl)c(Oc3cccc(Cl)c3Cl)cc2[nH]1` [Triclabendazole] gave a planktonic growth of 59%.
`Cc1nc2ccccn2c(=O)c1CCN1CCC(C(=O)c2ccc(F)cc2)CC1` [Pirenperone] gave a planktonic growth of 87%.
Work on `Cc1cc2c(s1)Nc1ccccc1N=C2N1CCN(C)CC1` [Olanzapine] yielded a planktonic growth of 110%.
`CC=CC1=C(C(=O)O)N2C(=O)[C@@H](NC(=O)[C@H](N)c3ccc(O)cc3)[C@H]2SC1` [Cefprozil] showed a planktonic growth of 104%.
With `Cc1c(O)c(=O)n(-c2ccccc2)n1C` [Antipyrine, 4-hydroxy] the planktonic growth was 97%.
In the case of `CC(C)OC(=O)C(C)(C)Oc1ccc(C(=O)c2ccc(Cl)cc2)cc1` [Fenofibrate], the planktonic growth is reported as 107%.
For `CN1CCCN=C1/C=C/c1cccc(O)c1` [Oxantel pamoate], the planktonic growth was 102%.
For `CC(N)CCCC(C)(C)O` (stereo not drawn) [Heptaminol hydrochloride], the planktonic growth was 86%.
Work on `C[C@@H](O[C@H]1OCCN(Cc2n[nH]c(=O)[nH]2)[C@H]1c1ccc(F)cc1)c1cc(C(F)(F)F)cc(C(F)(F)F)c1` [Aprepitant] yielded a planktonic growth of 82%.
`CCc1cccc(CC)c1NC(=O)CN(CC(=O)O)CC(=O)O` [Etifenin] was tested, and the planktonic growth was 93%.
`CN/C(=N\CCSCc1nc[nH]c1C)NC#N` [Cimetidine] gave a planktonic growth of 92%.
`C/C(=C\C(=O)OCCCCCCCCC(=O)O)C[C@@H]1OC[C@H](C[C@@H]2O[C@H]2[C@@H](C)[C@H](C)O)[C@@H](O)[C@H]1O` [Mupirocin] showed a planktonic growth of 56%.
Work on `O=C(O)c1cc(/N=N/c2ccc(S(=O)(=O)Nc3ccccn3)cc2)ccc1O` [Sulfasalazine] yielded a planktonic growth of 94%.
`CN1CCCN(C(c2ccccc2)c2ccc(Cl)cc2)CC1` (stereo not drawn) [Homochlorcyclizine dihydrochloride] gave a planktonic growth of 102%.
